The list shows a part of the results.
tested on: T1, C. trachomatis L2/434/Bu expressing GFP (CTL2-GFP); design: species or system HeLa; C. trachomatis total inclusion area by high-content imaging, normalised to DMSO; conditions: total inclusion area; 28.5 h, 10 µM; inhibitor
T1 construct: L2/434/Bu GFP intracellular growth in HeLa cells
Summary of the method: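 Host cell viability was gauged from Hoechst-stained nuclei counts, while chlamydial growth was taken from total inclusion area and inclusion number per well. Cells were fixed and imaged by high-content microscopy once bulk GFP and resorufin fluorescence had been measured.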

| Compound | % of control remaining |
| --- | --- |
| CCOCCCC(=O)N1CCN(Cc2nnc3n2CCCCC3)CC1 [CBK305298] | 81.9487 |
| CN(C)CCC1CCCCN1C(=O)[C@@H]1C[C@@H]2C=C[C@H]1C2 (stereo partly drawn) [CBK282054] | 115.827 |
| CC(C)[C@@H](CO)Nc1nc(-c2cccnc2)cn2ccnc12 [CBK037539] | 81.8626 |
| COc1ccc(NC(=O)CSc2cnn[nH]2)c(OC)c1 [CBK269969] | 89.4458 |
| O=C(Nc1c(F)cc(F)cc1OC1CCNCC1)c1ccccn1 [CBK050274T] | 84.7722 |
| OC1(C(F)(F)F)C=C(c2cccs2)ON1 (stereo not drawn) [CBK006243] | 80.2358 |
| CC(C)(C)OC(=O)N[C@@H](Cc1ccccc1)CN(Cc1ccccc1)Cc1ccc(S(=O)(=O)N2CCOC2=O)cc1 [CBK028952] | 68.6329 |
| CC(=O)N1Cc2cc(C)ccc2OC2(CCN(CC3CC3)CC2)C1 [CBK285021] | 104.41 |
| O=C(Nc1ccc(S(=O)(=O)Nc2cncs2)cc1)c1ccc(-c2cccc(C(F)(F)F)c2)o1 [CBK266625] | 54.3278 |
| COC(=O)[C@H]1CN(C(=O)Cc2ccccn2)C[C@@H]1c1ccc(F)cc1 [CBK283519] | 102.913 |
| Cc1cc(C)c(OCC(=O)Nc2cccc(-c3nc4cc(C(C)C)ccc4o3)c2)c([N+](=O)[O-])c1 [CBK264680] | 94.614 |
| CN1C(=O)/C(=C2\SC(=S)N(C(CCC(=O)O)C(=O)O)C2=O)c2ccccc21 (stereo not drawn) [CBK261010] | 94.7279 |
| CSCCN1CCC(C(=O)c2ccc(F)cc2)CC1 [CBK149145] | 107.029 |
| O=C1CC2(CCN(C(=O)C3CCOC3)CC2)Oc2c(Br)cc(Br)cc21 (stereo not drawn) [CBK156512] | 94.5083 |
| O=C(c1cnc2cc(Cl)ccc2c1O)N1CCN(c2ncccn2)CC1 [CBK107358] | 97.2505 |
| CCOc1ccc(Nc2nc(-c3ccc(C)cc3C)c(CC(=O)O)s2)cc1 [CBK264187] | 10.5592 |
| Cc1ccc(S(=O)(=O)NC(C)(C)CSc2nnc(N)s2)cc1 [CBK266350] | 123.469 |
| Cn1c(CN2CCN(c3ccc(C#N)cc3)CC2)nnc1[C@H]1C[C@@H](N)C1 [CBK306985] | 100.419 |
| O=C(C1CC1)N1CC(n2nc(-c3cccs3)ccc2=O)C1 [CBK284650] | 52.5658 |
| CCCC/C=C/c1cncc(NCCc2c[nH]c3ccccc23)n1 [CBK066081] | 83.7235 |
| CCC1c2ccc(C)n2CCN1C(=O)c1cc(-c2ccccn2)n[nH]1 (stereo not drawn) [CBK283225] | 102.354 |
